The other results are listed elsewhere or left out. At the low end of the ranking the order means little.
biological target: T1, ETS1 (UniProt P14921); experiment: custom PBM; settings: custom protein-binding microarray; buffer, salt, pH and temperature not stated; high values mean tight binding; double strand, one strand shown
T1 sequence: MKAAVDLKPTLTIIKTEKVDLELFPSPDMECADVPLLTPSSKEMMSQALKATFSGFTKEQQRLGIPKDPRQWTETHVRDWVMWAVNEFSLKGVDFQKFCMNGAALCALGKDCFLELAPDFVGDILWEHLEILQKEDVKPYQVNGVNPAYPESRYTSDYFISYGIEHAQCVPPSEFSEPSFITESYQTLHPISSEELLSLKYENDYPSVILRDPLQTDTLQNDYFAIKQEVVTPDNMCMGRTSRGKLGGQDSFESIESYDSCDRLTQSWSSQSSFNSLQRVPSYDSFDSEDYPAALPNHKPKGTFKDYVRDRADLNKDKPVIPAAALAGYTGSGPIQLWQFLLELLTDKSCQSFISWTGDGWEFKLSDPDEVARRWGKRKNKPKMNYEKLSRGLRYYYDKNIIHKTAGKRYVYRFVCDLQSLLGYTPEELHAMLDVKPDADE

Sequence	binding signal (log fluorescence intensity)
TACTGACTTATATATGCGAATGCACATGAATAGACCGTCTTGATTCGCTTGACGCTGCTG	8.15
TACTGACTAATATATGCGAATGCACATGAATAGACCGTCTTGATTCGCTTGACGCTGCTG	8.26
TCCGGCTACCAGCTCCACCCACTTCAGGCCTTGGAGGTCTTGATTCGCTTGACGCTGCTG	8.32
CGGAAGTGTCGTAAACGTCGGATATCCGGTTCTTCTGTCTTGATTCGCTTGACGCTGCTG	11.9
GTGTATAGGATCCCAGCCAACACACGTGTTAAAATGGTCTTGATTCGCTTGACGCTGCTG	8.27
CGGAAGTGTCGTAAGCGTCGGATATCCGGTTCTTCTGTCTTGATTCGCTTGACGCTGCTG	11.7
TACTGACTTATATATGCGAATGCATATGAATAGACCGTCTTGATTCGCTTGACGCTGCTG	8.38
GGAAAAGGGCCCAGGGTAACACCGGAAGTGGGCTTAGTCTTGATTCGCTTGACGCTGCTG	11.8
GCTGCTGCGGTACATACCCCACCGGATGTGACCCCGGTCTTGATTCGCTTGACGCTGCTG	10.5
CACAATTTTTACAGCAATGTAGCACGCGTAACTCCTGTCTTGATTCGCTTGACGCTGCTG	8.08
CAGCATAGGACGTCTTCCCTGAAGCAATTGATAACCGTCTTGATTCGCTTGACGCTGCTG	8.2
CGGGGACTTGACCCAACTCTGCCACGTGGGTCGTTTGTCTTGATTCGCTTGACGCTGCTG	8.21
TCCGGCTACAAGCTCCACCCACTTCAGGCCTTGTAGGTCTTGATTCGCTTGACGCTGCTG	8.3
GGAAAAAGGCCCAGGGTAACCCCGGAAGTGGGCTTAGTCTTGATTCGCTTGACGCTGCTG	10.5
CGGAAGTCTCGTAAACGTCGGATATCCGGTTCTTCTGTCTTGATTCGCTTGACGCTGCTG	11.3
CGGAAGTGTCCTAAACGTCGGATATCCGGTTCTTCTGTCTTGATTCGCTTGACGCTGCTG	11.7
AGTCGGGTAAGGGAATGTAGATCACGTGAATGAAAAGTCTTGATTCGCTTGACGCTGCTG	8.33
TACTGACTTCTATATGCGAATGCACATGAATAGACCGTCTTGATTCGCTTGACGCTGCTG	8.39
TAAAGGGAAGACGGGTGTGGTAGTTCCGGGTATTAAGTCTTGATTCGCTTGACGCTGCTG	8.31
GGAAAAAGGCCCAGGGTAACACCCGAAGTGGGCTTAGTCTTGATTCGCTTGACGCTGCTG	8.23
TACTGACTTATATATGCGTATGCACATGAATAGACCGTCTTGATTCGCTTGACGCTGCTG	8.26
TCCGGCTACCAGCTCCACCCACTTCAGACCTTGTAGGTCTTGATTCGCTTGACGCTGCTG	8.32
TAAAGGGAAGACGGTTGTGGTAGTTCCGGGTATTAGGTCTTGATTCGCTTGACGCTGCTG	8.47
CGGAAGTGTCGTAAACGTCGGATATCCGTTTCTTCTGTCTTGATTCGCTTGACGCTGCTG	9.45
CTGGGACTTGACCCAACTCTGCCACGTGGGTGGTTTGTCTTGATTCGCTTGACGCTGCTG	8.18
GCTGCTACGGTGCATACCCCACCGGATGTGACCCCGGTCTTGATTCGCTTGACGCTGCTG	10.3

Sequence	binding signal (log fluorescence intensity)
TCCGGCTACCAGCTCTACCCACTTCAGGCCTTGTAGGTCTTGATTCGCTTGACGCTGCTG	8.21
TAAAGGGAAGACGGTTGTGGTAGTTCCGGGTACTAAGTCTTGATTCGCTTGACGCTGCTG	8.61
GCTGCTGCGGTGCATACTCCACCGGATGTGACCCCGGTCTTGATTCGCTTGACGCTGCTG	10
GGAATAAGGCCCAGGGTAACACCGGAAGTGGGCTTAGTCTTGATTCGCTTGACGCTGCTG	11.9
GTGTATAGGATCCCATCCGACACACGTGTTAAAATGGTCTTGATTCGCTTGACGCTGCTG	8.18
TAAAGGGAAGACAGTTGTGGTAGTTCCGGGTATTAAGTCTTGATTCGCTTGACGCTGCTG	8.42
CACAATTTTTACAGTCATGTAGCACGCGTAACTCCTGTCTTGATTCGCTTGACGCTGCTG	8.17
GCTGCTGCGGTGCATACCCGACCGGATGTGACCCCGGTCTTGATTCGCTTGACGCTGCTG	10.5
CAGCATAGGACTTTTTCCCTGAAGCAATTGATAACCGTCTTGATTCGCTTGACGCTGCTG	8.27
CGGAAGTGTCGTAAACGTCGGATATCTGGTTCTTCTGTCTTGATTCGCTTGACGCTGCTG	8.37
CAGCATAGGACTTCTTCCCGGAAGCAATTGATAACCGTCTTGATTCGCTTGACGCTGCTG	9.98
CACAATTTTTACAGTAATGTAGCACGCGTATCTCCTGTCTTGATTCGCTTGACGCTGCTG	8.06
GCTGCTGCGGTGCATACCCCACCGGATGTGATCCCGGTCTTGATTCGCTTGACGCTGCTG	10.1
TACTGACTTATATATGCGAAAGCACATGAATAGACCGTCTTGATTCGCTTGACGCTGCTG	8.26
CAGTATAGGACTTCTTCCCTGAAGCAATTGATAACCGTCTTGATTCGCTTGACGCTGCTG	8.22
GATTAATTTCTGCCCTTATTCGCACGTCCCATAACAGTCTTGATTCGCTTGACGCTGCTG	8.26
TAAAGGGAAGACGGTTGTGGTAGTTCCGGGTCTTAAGTCTTGATTCGCTTGACGCTGCTG	8.36
GATTAATTTCTGCCCTTATTCGCACGTGCAATAACAGTCTTGATTCGCTTGACGCTGCTG	8.3
TAAAGGGAAGACGGTTGTGGTAGTTCCCGGTATTAAGTCTTGATTCGCTTGACGCTGCTG	8.32
CGGAAGTGTCGTAAACGTCGGATATCCCGTTCTTCTGTCTTGATTCGCTTGACGCTGCTG	8.7
TACTGACTTATATCTGCGAATGCACATGAATAGACCGTCTTGATTCGCTTGACGCTGCTG	8.21
TAAGGGGAAGACGGTTGTGGTAGTTCCGGGTATTAAGTCTTGATTCGCTTGACGCTGCTG	8.71
TAAAGGGAAGACGATTGTGGTAGTTCCGGGTATTAAGTCTTGATTCGCTTGACGCTGCTG	8.5
GATTAATTTCTGCCCTTATTCGAACGTGCCATAACAGTCTTGATTCGCTTGACGCTGCTG	8.42
GTGTATAGTATCCCATCCAACACACGTGTTAAAATGGTCTTGATTCGCTTGACGCTGCTG	8.16
CAGCATAGGACTTCGTCCCTGAAGCAATTGATAACCGTCTTGATTCGCTTGACGCTGCTG	8.36

Source: article PMC6602471
